Experimental data reported in the supplement of paper PMC11741623.
This is one part of the list. Interaction screen of human proteins with wild-type SARS-CoV-2 proteins by split-DHFR complementation in yeast, 1 µg/mL methotrexate. Value = fitness of the pair (three or more lineages) minus that of the viral protein without a human partner, on a scale set by negative (0) and fused positive (1) controls, mean of up to three cultures; higher = more likely to interact. Active = false discovery rate below 0.05 (one-sided t-test) in at least one culture. Nearly all pairs are not hits, and differences among them are mostly noise (correlation between cultures about 0.3); most hits were seen in one culture only. Human sequences are the Swiss-Prot entries looked up by gene name; the clone may be another isoform. NSP2 values were corrected by the authors for a growth advantage. Listed are human proteins with a hit and a random twelfth of the others.

Legend:
Test in all cases: yeast fitness gain over the viral ORF with no human partner (scaled fitness); higher = more likely to interact
SARS-CoV-2 NSP1 = target: SARS-CoV-2 NSP1
Protocol: (§1)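 Split mouse DHFR complementation in pooled diploid yeast: human ORFeome clones carry one fragment and viral ORFs the other; barcoded lineages compete in 1 µg/mL methotrexate and fitness is read by barcode sequencing in up to three cultures.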

SARS-CoV-2 NSP10 = target: SARS-CoV-2 NSP10
Protocol: as §1

SARS-CoV-2 NSP12 = target: SARS-CoV-2 NSP12
Protocol: as §1

SARS-CoV-2 NSP13 = target: SARS-CoV-2 NSP13
Protocol: as §1

SARS-CoV-2 NSP2 = target: SARS-CoV-2 NSP2
Protocol: as §1

SARS-CoV-2 NSP5 = target: SARS-CoV-2 NSP5
Protocol: as §1

SARS-CoV-2 NSP7 = target: SARS-CoV-2 NSP7
Protocol: as §1

SARS-CoV-2 ORF10 = target: SARS-CoV-2 ORF10
Protocol: as §1

SARS-CoV-2 ORF3B = target: SARS-CoV-2 ORF3B
Protocol: as §1

SARS-CoV-2 ORF6 = target: SARS-CoV-2 ORF6
Protocol: as §1

SARS-CoV-2 ORF7B = target: SARS-CoV-2 ORF7B
Protocol: as §1

SARS-CoV-2 ORF8 = target: SARS-CoV-2 ORF8
Protocol: as §1

SARS-CoV-2 ORF9B = target: SARS-CoV-2 ORF9B
Protocol: as §1

[1] = target: SARS-CoV-2 ORF9Bwu (the 73-codon ORF)
Protocol: as §1

SARS-CoV-2 S = target: SARS-CoV-2 S
Protocol: as §1

SARS-CoV-2 NSP15 = target: SARS-CoV-2 NSP15
Protocol: as §1

SARS-CoV-2 NSP4 = target: SARS-CoV-2 NSP4
Protocol: as §1

SARS-CoV-2 NSP6 = target: SARS-CoV-2 NSP6
Protocol: as §1

SARS-CoV-2 ORF7A = target: SARS-CoV-2 ORF7A
Protocol: as §1

SARS-CoV-2 NSP8 = target: SARS-CoV-2 NSP8
Protocol: as §1

SARS-CoV-2 ORF3A = target: SARS-CoV-2 ORF3A
Protocol: as §1

Measured: yeast fitness gain

B1: C9orf123, Q96GE9 (protein)
chain: MGSRLSQPFESYITAPPGTAAAPAKPAPPATPGAPTSPAEHRLLKTCWSCRVLSGLGLMGAGGYVYWVARKPMKMGYPPSPWTITQMVIGLSENQGIATWGIVVMADPKGKAYRVV
inactive: SARS-CoV-2 NSP1 = -0.0847 | SARS-CoV-2 NSP10 = -0.187 | SARS-CoV-2 NSP12 = -0.0854 | SARS-CoV-2 NSP13 = 0.0228 | SARS-CoV-2 NSP2 = -0.15 | SARS-CoV-2 NSP5 = -0.00911 | SARS-CoV-2 NSP7 = -0.261 | SARS-CoV-2 ORF10 = -0.0592 | SARS-CoV-2 ORF3B -0.182 | SARS-CoV-2 ORF6 = 0.0457 | SARS-CoV-2 ORF7B -0.0409 | SARS-CoV-2 ORF8 = -0.13 | SARS-CoV-2 ORF9B 0.0211 | [1] -0.0327 | SARS-CoV-2 S -0.125

B2: CD52, P31358 (protein)
chain: MKRFLFLLLTISLLVMVQIQTGLSGQNDTSQTSSPSASSNISGGIFLFFVANAIIHLFCFS
inactive: SARS-CoV-2 NSP1 = -0.0784 | SARS-CoV-2 NSP10 = 0.026 | SARS-CoV-2 NSP12 = -0.173 | SARS-CoV-2 NSP13 = -0.0509 | SARS-CoV-2 NSP15 = 0.0938 | SARS-CoV-2 NSP2 = -0.202 | SARS-CoV-2 NSP4 = -0.273 | SARS-CoV-2 NSP5 = -0.0678 | SARS-CoV-2 NSP6 = 0.0345 | SARS-CoV-2 NSP7 = -0.0377 | SARS-CoV-2 ORF10 = 0.0331 | SARS-CoV-2 ORF3B -0.0827 | SARS-CoV-2 ORF6 = -0.0183 | SARS-CoV-2 ORF7A -0.0334 | SARS-CoV-2 ORF7B 0.241 | SARS-CoV-2 ORF8 = 0.0333 | SARS-CoV-2 ORF9B 0.0266 | [1] 0.0797 | SARS-CoV-2 S 0.0456

B3: OAS2, P29728 (protein)
chain: MGNGESQLSSVPAQKLGWFIQEYLKPYEECQTLIDEMVNTICDVLQEPEQFPLVQGVAIGGSYGRKTVLRGNSDGTLVLFFSDLKQFQDQKRSQRDILDKTGDKLKFCLFTKWLKNNFEIQKSLDGFTIQVFTKNQRISFEVLAAFNALSLNDNPSPWIYRELKRSLDKTNASPGEFAVCFTELQQKFFDNRPGKLKDLILLIKHWHQQCQKKIKDLPSLSPYALELLTVYAWEQGCRKDNFDIAEGVRTVLELIKCQEKLCIYWMVNYNFEDETIRNILLHQLQSARPVILDPVDPTNNVSGDKICWQWLKKEAQTWLTSPNLDNELPAPSWNVLPAPLFTTPGHLLDKFIKEFLQPNKCFLEQIDSAVNIIRTFLKENCFRQSTAKIQIVRGGSTAKGTALKTGSDADLVVFHNSLKSYTSQKNERHKIVKEIHEQLKAFWREKEEELEVSFEPPKWKAPRVLSFSLKSKVLNESVSFDVLPAFNALGQLSSGSTPSPEVYAGLIDLYKSSDLPGGEFSTCFTVLQRNFIRSRPTKLKDLIRLVKHWYKECERKLKPKGSLPPKYALELLTIYAWEQGSGVPDFDTAEGFRTVLELVTQYQQLCIFWKVNYNFEDETVRKFLLSQLQKTRPVILDPAEPTGDVGGGDRWCWHLLAKEAKEWLSSPCFKDGTGNPIPPWKVPTMQTPGSCGARIHPIVNEMFSSRSHRILNNNSKRNF
inactive: SARS-CoV-2 NSP1 = 0.00659 | SARS-CoV-2 NSP12 = 0.0432 | SARS-CoV-2 NSP13 = 0.00913 | SARS-CoV-2 NSP2 = 0.0469 | SARS-CoV-2 NSP7 = 0.0226 | SARS-CoV-2 NSP8 = 0.127 | SARS-CoV-2 ORF10 = -0.115 | SARS-CoV-2 ORF3B -0.0647 | SARS-CoV-2 ORF6 = 0.0315 | SARS-CoV-2 ORF7A 0.0147 | SARS-CoV-2 ORF7B 0.197 | SARS-CoV-2 ORF8 = -0.00672 | SARS-CoV-2 ORF9B -0.0348 | SARS-CoV-2 S -0.0447

B4: FAM24B, Q8N5W8 (protein)
chain: MPVIAGGILAALLLLIVVVLCLYFKIHNALKAAKEPEAVAVKNHNPDKVWWAKNSQAKTIATESCPALQCCEGYRMCASFDSLPPCCCDINEGL
inactive: SARS-CoV-2 NSP1 = -0.00445 | SARS-CoV-2 NSP13 = 0.0262 | SARS-CoV-2 NSP2 = -0.127 | SARS-CoV-2 NSP7 = 0.11 | SARS-CoV-2 ORF3A 0.0373 | SARS-CoV-2 ORF3B -0.0626 | SARS-CoV-2 ORF7B -0.0716 | SARS-CoV-2 ORF8 = -0.113

B5: SERPINB10, P48595 (protein)
chain: MDSLATSINQFALELSKKLAESAQGKNIFFSSWSISTSLTIVYLGAKGTTAAQMAQVLQFNRDQGVKCDPESEKKRKMEFNLSNSEEIHSDFQTLISEILKPNDDYLLKTANAIYGEKTYAFHNKYLEDMKTYFGAEPQPVNFVEASDQIRKDINSWVERQTEGKIQNLLPDDSVDSTTRMILVNALYFKGIWEHQFLVQNTTEKPFRINETTSKPVQMMFMKKKLHIFHIEKPKAVGLQLYYKSRDLSLLILLPEDINGLEQLEKAITYEKLNEWTSADMMELYEVQLHLPKFKLEDSYDLKSTLSSMGMSDAFSQSKADFSGMSSARNLFLSNVFHKAFVEINEQGTEAAAGSGSEIDIRIRVPSIEFNANHPFLFFIRHNKTNTILFYGRLCSP
inactive: SARS-CoV-2 NSP1 = -0.315 | SARS-CoV-2 NSP12 = 0.0414 | SARS-CoV-2 NSP13 = -0.166 | SARS-CoV-2 NSP2 = -0.601 | SARS-CoV-2 NSP6 = -0.171 | SARS-CoV-2 NSP7 = 0.0284 | SARS-CoV-2 ORF10 = -0.054 | SARS-CoV-2 ORF3B -0.0523 | SARS-CoV-2 ORF6 = -0.199 | SARS-CoV-2 ORF7A -0.00956 | SARS-CoV-2 ORF8 = 0.0615 | SARS-CoV-2 ORF9B -0.0578
